Some of the results follow. These are noisy estimates, calculated here from bound and input reads.
Molecular target: T1, Pho4 (S. cerevisiae) (UniProt P07270)
T1 sequence: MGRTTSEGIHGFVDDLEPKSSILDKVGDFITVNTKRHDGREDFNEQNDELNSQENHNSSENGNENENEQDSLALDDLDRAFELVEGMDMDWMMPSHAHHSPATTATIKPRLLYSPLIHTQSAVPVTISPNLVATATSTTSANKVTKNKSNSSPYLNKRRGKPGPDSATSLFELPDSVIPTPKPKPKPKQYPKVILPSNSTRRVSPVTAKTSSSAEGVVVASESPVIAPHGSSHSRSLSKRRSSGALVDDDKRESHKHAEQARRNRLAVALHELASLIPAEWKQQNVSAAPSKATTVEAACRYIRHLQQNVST
Test: relative binding free energy (BET-seq); higher = weaker binding
Conditions: reference: library average

| Sequence | relative binding free energy |
| --- | --- |
| TTTGACACGTGAAGGG | 0.19 kcal/mol |
| GGGCGCACGTGCGGGG | -0.18 kcal/mol |
| TGGGCCACGTGTAAAT | 0.1 kcal/mol |
| TTTTACACGTGTGAGC | 0.13 kcal/mol |
| ATTGGCACGTGGGAGA | -0.18 kcal/mol |
| AATGGCACGTGTAATT | -0.1 kcal/mol |
| ACAAACACGTGTTGGT | 0.15 kcal/mol |
| TAGTGCACGTGGTCCG | -0.03 kcal/mol |
| GTATACACGTGTGGGG | 0.12 kcal/mol |
| TTGGTCACGTGCCGGG | -0.05 kcal/mol |
| GGCGTCACGTGGTATT | 0.1 kcal/mol |
| TCGGTCACGTGAGGGA | 0.28 kcal/mol |
| CTTGTCACGTGAAGTT | 0.17 kcal/mol |
| TTTTTCACGTGCCGGG | 0.26 kcal/mol |
| TATGTCACGTGAGAGG | 0.34 kcal/mol |
| TGGGTCACGTGCGCTG | -0.11 kcal/mol |
| TTGGCCACGTGTGGCG | -0.07 kcal/mol |
| AATGGCACGTGTAGGG | -0.09 kcal/mol |
| GGGCTCACGTGTATTG | 0.21 kcal/mol |
| ATTTACACGTGGAGGG | 0.12 kcal/mol |
| GGTGACACGTGTTTAT | 0.14 kcal/mol |
| CGGCGCACGTGGAGGA | -0.08 kcal/mol |
| TGGGGCACGTGGGGAT | -0.09 kcal/mol |

| Sequence | relative binding free energy |
| --- | --- |
| CGTGACACGTGGGTGA | -0.1 kcal/mol |
| ATTCGCACGTGGTATT | -0.13 kcal/mol |
| AGTAGCACGTGCTTTG | -0.17 kcal/mol |
| TTTGACACGTGGGAGG | -0.04 kcal/mol |
| AAAAGCACGTGAAGTT | 0.34 kcal/mol |
| CTGGTCACGTGTTTCG | 0.17 kcal/mol |
| TTCTTCACGTGGGCTT | 0.18 kcal/mol |
| ATAGTCACGTGAAGTA | 0.33 kcal/mol |
| AGGGGCACGTGTAGAC | -0.03 kcal/mol |
| AGGGACACGTGCCGTT | 0.01 kcal/mol |
| GGTTGCACGTGGAAAG | 0.17 kcal/mol |
| TTTATCACGTGGGGCG | 0 kcal/mol |
| TTTCACACGTGGGTTA | -0.06 kcal/mol |
| TTGTGCACGTGACTGT | 0.1 kcal/mol |
| GAGAGCACGTGGAGGT | -0.07 kcal/mol |
| TATGGCACGTGATTGA | -0.02 kcal/mol |
| TCGTTCACGTGGTAAA | 0.24 kcal/mol |
| AGGCGCACGTGGAAGT | 0.08 kcal/mol |
| GATTGCACGTGGTAAT | 0.07 kcal/mol |
| ATTCGCACGTGGTTGT | -0.22 kcal/mol |
| ACGGTCACGTGTCAGG | 0.14 kcal/mol |
| TTCGTCACGTGTCTGT | 0 kcal/mol |
| AGGGTCACGTGGGAGC | 0.19 kcal/mol |

| Sequence | relative binding free energy |
| --- | --- |
| ACAGTCACGTGTTGAG | 0.36 kcal/mol |
| TCTTACACGTGTTCGT | 0.21 kcal/mol |
| GACGACACGTGTGGTA | 0.19 kcal/mol |
| GGATACACGTGAGAAG | 0.46 kcal/mol |
| TGTTACACGTGGTATT | 0 kcal/mol |
| ATGGTCACGTGGAGAC | 0.24 kcal/mol |
| TAGTGCACGTGCTATT | -0.2 kcal/mol |
| GGTGGCACGTGTGCGG | -0.07 kcal/mol |
| GCGCACACGTGTGTGG | 0.03 kcal/mol |
| AAATTCACGTGTTTTG | 0.3 kcal/mol |
| TGGGTCACGTGTCTAA | 0.17 kcal/mol |
| GAGCGCACGTGTTTGT | 0.01 kcal/mol |
| AAGATCACGTGATGAT | 0.32 kcal/mol |
| GTTGTCACGTGAAGCT | 0.26 kcal/mol |
| TATATCACGTGTTCGG | 0.32 kcal/mol |
| AGGGTCACGTGCGGAC | 0.14 kcal/mol |
| ATAAGCACGTGGGCTG | -0.39 kcal/mol |
| ATTGGCACGTGTTGCG | -0.14 kcal/mol |
| ATACTCACGTGGAGTT | 0.3 kcal/mol |
| CGTAGCACGTGGTGGT | -0.12 kcal/mol |
| ATAATCACGTGTAAGT | 0.14 kcal/mol |
| GGTGTCACGTGGCAGT | 0.04 kcal/mol |
| GTAGTCACGTGGCATA | 0.06 kcal/mol |

| Sequence | relative binding free energy |
| --- | --- |
| CTTATCACGTGTGCGT | 0.21 kcal/mol |
| AGGGGCACGTGTCGTA | -0.13 kcal/mol |
| CTGTACACGTGAGGTT | 0.4 kcal/mol |
| CTGGTCACGTGGAAAG | 0.18 kcal/mol |
| TTAGACACGTGGGCTG | -0.21 kcal/mol |
| TCGGGCACGTGTGGAA | 0 kcal/mol |
| TTTTGCACGTGTCTGA | 0.05 kcal/mol |
| GTTCTCACGTGGGTCT | 0.19 kcal/mol |
| TTTATCACGTGGTAGA | 0.16 kcal/mol |
| TGCGTCACGTGTTGGC | 0.06 kcal/mol |
| TGCGACACGTGTTGTG | -0.01 kcal/mol |
| TAATGCACGTGATTTG | 0.16 kcal/mol |
| ATTATCACGTGGGAAG | 0.1 kcal/mol |
| ATTGTCACGTGCATAT | -0.07 kcal/mol |
| GTCAGCACGTGGATGT | -0.01 kcal/mol |
| CTTGTCACGTGTAGCG | 0.1 kcal/mol |
| TGCGCCACGTGTATGG | 0.03 kcal/mol |
| GGGTACACGTGGTGAC | 0.02 kcal/mol |
| GATGGCACGTGGTCAG | -0.23 kcal/mol |
| TATTTCACGTGGGTGT | 0.18 kcal/mol |
| GTGTGCACGTGCATTT | 0.08 kcal/mol |
| GTTGTCACGTGGTGTC | 0.01 kcal/mol |
| GTTGACACGTGTATGG | 0.05 kcal/mol |

| Sequence | relative binding free energy |
| --- | --- |
| TATCTCACGTGGGGAT | 0.16 kcal/mol |
| ATGGGCACGTGGATTT | 0.04 kcal/mol |
| ACATACACGTGTGGTG | -0.04 kcal/mol |
| ATATTCACGTGGGTGG | 0.14 kcal/mol |
| GTGTTCACGTGCCGTG | 0.09 kcal/mol |
| TTTGCCACGTGTAAGG | 0.07 kcal/mol |
| TGTCACACGTGAGGGG | 0.2 kcal/mol |
| GTGGGCACGTGTATCT | -0.05 kcal/mol |
| TTCATCACGTGCGGTG | 0.14 kcal/mol |
| AACTGCACGTGTATGT | 0.01 kcal/mol |
| AGTGACACGTGTTTCT | 0 kcal/mol |
| AGTAACACGTGCGGGT | -0.15 kcal/mol |
| CTTAGCACGTGGTATA | -0.2 kcal/mol |
| TGCAGCACGTGCTTGT | -0.09 kcal/mol |
| GCGAGCACGTGTAGTG | -0.07 kcal/mol |
| TAAGTCACGTGGTCTT | 0.09 kcal/mol |
| TAGGGCACGTGGGACG | -0.19 kcal/mol |
| GGCTGCACGTGGGCTG | -0.12 kcal/mol |
| GTTTTCACGTGTTCGG | 0.29 kcal/mol |
| TTGTACACGTGTTCAG | -0.08 kcal/mol |
| GGGAACACGTGAAAGT | 0.47 kcal/mol |
| GTAAACACGTGTGTGA | 0.13 kcal/mol |
| GTATGCACGTGAGGTC | 0.22 kcal/mol |
